Sequences and labels used below:
B1: CPEB3 Ribozyme (parent)
chain: UAACAGGGGGCCACAGCAGAAGCGUUCACGUCGCAGCCCCUGUCAGAUUCUGGUGAAUCUGCGAAUUCUGCUGUAUAUCUC

Read counts are not given, so values of variants with three or more changes are uncertain.

In the data set the parent is B1. The data set can be described thus: self-cleavage, relative activity (ratio to wild type); higher = more cleavage; in vitro, sequencing. An outline of the steps: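 Libraries of CPEB3 self-cleaving ribozyme mutants came from rounds of error-prone PCR and carried barcodes, which DNA sequencing matched to variants. In vitro transcription used T7 RNA polymerase at 37°C for 5 hours, with a further 15 min in DNase I before EDTA stopped the reaction; the ribozymes cleaved during both steps. The RNA was reverse transcribed with template switching and sequenced on Illumina. Relative activity is the cleaved/total read fraction of a variant divided by that of the unmutated ribozyme, averaged over three batches with at least 5 reads.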
Consider U1C C11U A15G U49C A65G U66A U80A, for which the self-cleavage came to 0.09.
Then U1C U25C A28G A57G, with 0.06.
As for U1C G7U U26C U60C U74A, the figure is 0.25.
U1C G8U U49A U72A: the self-cleavage came to 0.06.
As for U1C C11U A20G A47G A56G, the figure is 0.06; as for U1C G6U A18G U49A U72C U78A, 0.05; as for U1C G16U U41C U78C, 0.41.
As to U1C G6U C12U C40U U41C U72C G73U, the self-cleavage was 0.86.
Then U1C G30C A64G, with 0.24; and U1C A57U A64U U66C U72G, with 0.25; and U1C U26C U51A, with 0.47.
Then U1C A64G A77G, with 0.74.
As for U1C C23U U31A A35U, the self-cleavage turned out to be 0.04.
As for U1C G7U A28C, the figure is 0.08; as for U1C C23U A56U U67C, 0.14.
As for U1C G9A A28G U41G, the figure is 0.06; as for U1C G7U U69C, 0.26.
Then U1C U31C A35G A45G A57G, with 0.86.
U1C G9C A21G U66C G70A: the self-cleavage was 0.02.
Then U1C G6A A15G U78G, with 0.06; and U1C U25C A35G A45G U54C, with 0.35; and U1C G10U A13U U25C, with 0.06.
In the case of U1C U26C U60C U67C G70A, the self-cleavage came to 0.29.
As for U1C G6A A56G, the figure is 0.32.
Then U1C G9A A13U U31G U41C A64G, with 0.05; and U1C G16A U25C U41A, with 0.32; and U1C G36A A64G, with 0.13.
Then U1C G7A A35U, with 0.15; and U1C U25G A28U A65G A77G U80C, with 0.12; and U1C G53C U69A, with 0.29.
U1C C17U A18G U54C: the self-cleavage came out at 0.17.
Then U1C G10C U41A U43C U54C, with 0.07; and U1C G8A A13G U51C A64C, with 0.05; and U1C C11U C40U U41C, with 0.31.
On to U1C U25C U60A U67A, for which the self-cleavage was found to be 0.05.
As for U1C C17U U31A A47G A77G, the figure is 0.24; as for U1C U25C U31C A64U, 0.06; as for U1C G10A U41A, 0.21.
As to U1C G33A A35U C39A A75U, the self-cleavage is 0.05.
Consider U1C U25C U51A, for which the self-cleavage turned out to be 0.46.
As for U1C U25C U41C U72C, the figure is 0.35; as for U1C G8A U25A U26G A64U, 0.04; as for U1C G55U U66C, 0.1.
For U1C C4U U25C U49A, the self-cleavage worked out at 0.38.
In the case of U1C C11U A35U U41A, the self-cleavage came out at 0.24.
Turning to U1C G6A U25G A45G, the self-cleavage came out at 0.33.
As for U1C G6A U67A U74C, the figure is 0.42; as for U1C U25C A75G, 0.26; as for U1C G8A A35U G53C G63U, 0.13.
As for U1C C27U U43A G63A U66C U67A, the figure is 0.06; as for U1C U25C C62U U80C C81U, 0.06; as for U1C G7C U26C A56G, 0.04.
As for U1C U25C U51A A56U U67C U78A, the figure is 0.04.
On to U1C A64G U80A, for which the self-cleavage came out at 0.87.
Consider U1C C40U A56G, for which the self-cleavage amounted to 0.54.
Then U1C C23U A28U U49A A56U U67C, with 0.05; and U1C G7U A13G A28U A35G A56G A65G, with 0.04; and U1C A64G U72C, with 0.89.
As for U1C A64G U69C, the figure is 0.33; as for U1C U25A C39U A45U A57G U78G, 0.05.
Then U1C C32U C40A A47G U49A C59A U76C, with 0.04; and U1C G19A U49A A65G, with 0.16; and U1C C34A U51A C79A, with 0.47.
Take U1C C23U A45G: the self-cleavage was 0.3.
Then U1C C11G U60A A65G, with 0.07.
As for U1C G9U U31C U60C U78C, the figure is 0.04; as for U1C U31C U54G U78A, 0.26.
As for U1C C12U A35U U66C, the figure is 0.1.
U1C G19U U67C U69A: the self-cleavage is 0.05.
As for U1C G30A U74C, the figure is 0.09; as for U1C U26G A57G, 0.59; as for U1C C38A U48C A56G A57G, 0.05.
As for U1C G33A U48C U67C U78C, the figure is 0.07.
With U1C U26C C27A A28G C34A U60C, the self-cleavage amounted to 0.05.
As for U1C G30U U66C, the figure is 0.18.
Then U1C U25C U31A C59U U76C A77U, with 0.51; and U1C C11A G19U U51G A57G U76C, with 0.05.
On to U1C G61A A65U, for which the self-cleavage stood at 0.1.
In the case of U1C C11G A21G U25A U51C A57G U67C, the self-cleavage was 0.39.
As for U1C G30U A64U, the figure is 0.19; as for U1C G10A A21G U26A A35G U41C U74C, 0.57; as for U1C U25G G36U, 0.29.
Then U1C C39A U58C, with 0.31.
Then U1C C37G G42U U43C, with 0.1; and U1C G9U G24A U43C U72C, with 0.
As for U1C G10A C40A A45C U48C A64G, the self-cleavage was found to be 0.06.
Take U1C G7A A15G A18U C34U A64G U74G: the self-cleavage is 0.04.
As for U1C U25C C27U, the figure is 0.43.
Then U1C G33A U69A U78C, with 0.06; and U1C G10A U80C, with 0.41.
Take U1C A57G U78C: the self-cleavage turned out to be 0.64.
As for U1C G9A C44U G52A U60C, the figure is 0.29.
Then U1C U25C G30A A56G, with 0.1.
Then U1C C17U G52C U58G G63U, with 0.23; and U1C U26A A56U U58C U80A, with 0.17.
Regarding U1C U31C U58A U60A U67C U76A, the self-cleavage was found to be 0.08.
As for U1C U31A A56G, the figure is 0.34; as for U1C C11U A15G U48C A56U A65G, 0.08.
As for U1C C34A U41A U51A U72G, the figure is 0.05.
As for U1C C11U U25G U69A, the figure is 0.05; as for U1C G42A U66C, 0.32.
Turning to U1C U31A A35U C38U U49C U58C A64G, the self-cleavage was found to be 0.04.
On to U1C U25C U43A A45C A64U, for which the self-cleavage was 0.05.
As for U1C U25A A35G U41C U69A U74C, the figure is 0.13; as for U1C U25C A28G C39A U48C, 0.06.
Then U1C G9A U31C C40U A45G G73A, with 0.25.
As to U1C G10U A20G C50U U66C, the self-cleavage is 0.05.
Then U1C G9A U26A U43C G63U U72A, with 0.04; and U1C G10A A13G A20G U25C A45G A64G, with 0.03; and U1C G9A U51A U58A A65G U72C, with 0.15.
Then U1C U26A A64U G70A, with 0.2; and U1C U26A U49C U60A A64G, with 0.07.
Consider U1C U31C A35G A56G A57U, for which the self-cleavage was 0.47.
In the case of U1C G7A C23A A35G U41A C50A A77U, the self-cleavage is 0.05.
As to U1C A64U U66G, the self-cleavage was 0.19.
Then U1C C29U U43A, with 0.66; and U1C U25C U31A G70A U72A C81U, with 0.04.
Then U1C C38A U41G A47G U48A U80C, with 0.08; and U1C C12U A45U G52A A56C U67C, with 0.11; and U1C C12G A77U, with 0.23.
As for U1C U26C G53A U58C, the figure is 0.08.
On to U1C G7C U49A, for which the self-cleavage turned out to be 0.38.
Then U1C G24A A56G G70A, with 0.05; and U1C G10A U60C, with 0.19; and U1C U26A U49C A57G U72A, with 0.1.
As for U1C G33A A47G A56U A57G U78C, the figure is 0.05; as for U1C U25C G36U A56G, 0.13; as for U1C U26C A28G U48C U80C, 0.36.
As for U1C G9U C11A A65G U66C, the figure is 0.05; as for U1C G7C G10A A20G U26C, 0.44.
In the case of U1C C12U G24A, the self-cleavage was determined as 0.05.
Then U1C G7U A18G U51A U54C U67A U72C, with 0.05; and U1C G10C U26A A28U, with 0.06; and U1C G8A A35G U67A, with 0.29.
Then U1C U31C C71G C79A, with 0.29; and U1C C23G A28U A47G, with 0.21.
On to U1C U25C U41C, for which the self-cleavage came to 0.68.
Then U1C G33A A56G A57G, with 0.08; and U1C C12U A18G U49C, with 0.21.
As for U1C G10A A13G, the figure is 0.06; as for U1C G7C A20U C32A A35G U51A U66C, 0.04.
As for U1C C29G A45G U69C, the figure is 0.07.
Regarding U1C G6A A56G U74C A75G U78A, the self-cleavage worked out at 0.42.
Then U1C U26C U67C G70A, with 0.24; and U1C G33A U72G, with 0.06; and U1C G42A U43C A45C A57G, with 0.05.
Consider U1C G8A A45G U51A A57G, for which the self-cleavage worked out at 0.32.
Regarding U1C C11U A45G U49C A65G U66C, the self-cleavage came out at 0.23.
Then U1C G10C G16A U43C, with 0.1; and U1C U26C A64G U74C U76A, with 0.52.
As for U1C G9U G33C, the figure is 0.05.
As for U1C U31C A56C U72A, the figure is 0.09.
For U1C C4U A13G A28G C44U U72C, the self-cleavage is 0.11.
Then U1C C23U U58A U72A, with 0.04; and U1C G16U U54C U67C, with 0.13; and U1C U31C C32U U51C U58C, with 0.07.
Consider U1C G7A C11A U49C, for which the self-cleavage was 0.06.
Then U1C G22A U31A, with 0.16; and U1C A64G U74G, with 1.22; and U1C U26C U49A A64U U67C U74C, with 0.05.
As for U1C C4U U41C U48C, the figure is 0.46.
Consider U1C G10A G30A U78A U80C, for which the self-cleavage was determined as 0.04.
Then U1C G24A U31A A35G C40U U48C U66C, with 0.07.
Then U1C C44A C81U, with 0.48; and U1C G24U A28G U31C U43C A64G, with 0.17; and U1C C37A A45U U51C U69A, with 0.05.
Turning to U1C C4U G63A, the self-cleavage amounted to 0.98.
